B1: tRNA (parent)
chain: CUCUCGGUAGCCAAGUUGGUUUAAGGCGCAAGACUUUAAUUUAUCACUACGAAAUCUUGAGAUCGGGCGUUCGACUCGCCCCCGGGAGAUUUUUUCCUCGAGCAA

This sample is rich in variants without activity.

The values that follow come from the RNAGym collection of RNA variant scans (doi:10.1101/gad.245936.114).

Variants of B1 are the subject of this data set. Put plainly: nonsense suppression (GFP-seq) (ratio to wild type); higher = more function; SUP4oc tRNA, yeast GFP reporter sort-seq. In short, it runs like this: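 To measure nonsense suppression, tRNA variants from a library carrying ~3% random mutations were integrated into the yeast genome alongside RFP and a GFP ochre reporter under galactose control. Growth took place in raffinose/galactose medium supplemented with 80 mg/L adenine, followed by sorting into GFP/RFP bins and Illumina sequencing of each bin (phred ≥30). For each variant with ≥100 reads and ≥30 cells, the bin median GFP/RFP values were weighted by its estimated cell share per bin and referenced to the unmutated parent tRNA.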
CUUUCGCUAGCCAAGUUGGUUUAAGGCGCAAGACUUUAAUUUAUCACUACGAAAUCUAGAGAUCGGGCGUUCGGCUCGCCCCCGGGAGAUUUUUUCCUCGAGCAA: the nonsense suppression is no more than 0.026.
Turning to CUCUCGGUUGCCAAGUUGGUUUAAGGCGCAAGACUUUAAUUUAUCACUACGAAAUCUUGAGAUCGGGCGUUCGACUCGCCCACGUGAGAUUUUUUCCUCGAGCAA, the nonsense suppression is no more than 0.026.
As for CUCUCGGUAGCCAAGUUGGUUUAAGGCGCAGGACUUUAAUUUAUCACUACGAAAUCUUGAGAUCGGGCUUUCGACUCGCCCCCGGGAGAUUUUUUCCUCGAGCAA, the figure is no more than 0.026; as for CUUUCGGUAGCCAAGUUGGUUUAAGGCGGAAGACUUUAAUUUAUCACUACGAAAUCUUGAGAGCGGGCGUUCGACUCGCCCCCGGGAGAUUUUUUCCUCGAGCAA, no more than 0.026; as for CUCUCGGUAGCCAAGUUGGUUUAAGGCGCAAGACAUUAAUUUAUCACUACGAAAUCUUAAGAUCGGACGUUCGACUCGCCCCCGGGAGAUUUUUUCCUCGAGCAA, no more than 0.026.
As for CUCUCGGUAGCCAGGUUGGUUUAAGGCGCAAGACUUUAAUUUAUCACUACGAAAUCUUGAGAUAGGGCGUUCGUCUCGCCCCCGCGAGAUUUUUUCCUCGAGCAA, the figure is no more than 0.026; as for CUCUCGGUAGCCAAGUUGGUUGAAGGCGCAUGACUUUAAUUUAUCACUACGAAAUCAUGAGAUCGGGCGUUCGGCUCGCGCCCGGGAGAUUUUUUCCUCGAGCAA, no more than 0.026; as for CUCUCGGUAGCCAAGUCGGUUUAAGGCGCAAGACUUUAAUUUAUCACUACGAAAUCUUGAGAUCGGGCGUUCGACUCGCCCCCGGGAGAUUUUUUCCUCGAGCAA, 1.05.
For CUCUCGGUAGCCAAGUUGGUUUAAGGCGCAUGACUUUAAUUUAUCACUACGAAAUCUUGCGAUCGGGCGUUUGACCCGGCCCCGGGAGAUUUUUUCCUCGAGCAA, the nonsense suppression was no more than 0.026.
As for CGUUCGGUAGCCAAGUUGGUUUAAGGCGCAAGACUUUAAUUUAUCACUACGAAAUCUUGAGAUCGGGCGUUCGACUCGCCCCCGGGAGAUUUUUUCCUCGAGCAA, the figure is no more than 0.026; as for CUCUCGGUAGCCAAGUUGGUUUAAGCCGCAAGUCUUUAAUUUAUCACUACGAAAUCUUGAGAUCGGGCCUUCGACUCGCCCCCGGGAGAUUUUUUCCUCGAGCAA, no more than 0.026.
CUCUCGGUAGCCAUGUCGGUUUAAGGCGCAAGACUUUAAUUUAUCACUACGAAAUCUUGAUAUCGGGCGUUCGACUCGCGCCCGGGAGAUUUUUUCCUCGAGCAA: the nonsense suppression was no more than 0.026.
The figure for CUUGCGGUAGCCAAGUUGGUUUAAGGCGCAAGAAUUUAAUUUAUCACUACGAAAUCUUGAGAUCGGGCGUUCGACUCGCCCCCGGGAGAUUUUUUCCUCGAGCAA is no more than 0.026; for CUCCCGGUAGCUAAGUUGGUUUAAGGCGCAAGACUUUAAUUUAUCACUACGAAAUCUUGAGAUCGGGCGUUCGACUCGCCCCCGGGAGAUUUUUUCCUCGAGCAA it is 0.745; for CUCUCGGUAGCCAAGUUUGUUUAAGGCGCAAGACUUUAAUUUAUCACUACGAAAUCUUGAGAUCGGGCGUUCGACCCGCCCCCGGUAGAUUUUUUCCUCGAGCAA it is no more than 0.026.
The figure for CUCUCCGUAGCCAAGUUGGUUUAAGGCGCAAGACUUUAAUUUAUCACUACGAAAUCUUGAGAUCGGGCGUUCGAUUCGCCCCCGAGAGAUUUUUUCCUCGAGCAA is no more than 0.026; for CUCUCGGUAGCCAAUUUGGUUUAAGGCGCAAGACUUUAAUUUAUCACUACGAAAUCUUGAGAUCGGGCGUUCGACGCGCCCGCGGGCGAUUUUUUCCUCGAGCAA it is no more than 0.026; for CUCUCGGUAGCCAAGUUGGUUUAAGACGCAAGACUUUAAUUUAUCACUACGAAAUCUUGAGAUCGGGCGUUCGACUCGUCCCCGGGAAAUUUUUUCCUCGAGCAA it is no more than 0.026.
Take GUCUCGGUAGCCAAGUUGGUUUAAGGCGCAAGAAUUUAAUUUAUCACUACGAAAUCUUGAGAUCAGGCGUUCGACUCGCCCCCGGGAGAUUUUUUCCUCGAGCAA: the nonsense suppression was no more than 0.026.
Turning to CUCUCGGCAGCCAAGUUGGUUUAAGGCGCCAGACUUUAAUUUAUCACUACGAAAUCUUGAGAUCGGGCGUUCGAGUCGCCCCCGGGAGAUUUUUUCCUCGAGCAA, the nonsense suppression is no more than 0.026.
As for CUCUCGGUAGCCGAGUUGGUUUAAGGCGCAAGACUUUAAUUUAUCACUACGAAAUAUUGAGAUCGGGCGUUCGACUCGCCCCCGGGAGAUUUUUUCCUCGAGCAA, the figure is no more than 0.026; as for CUCACGGUAGCCAAGUUGGUUUAAGGCGCAAGACUUUAAUUUAUCACUACGAAAUCUUGAGAUCGGGCGUUCGACACGCCCCCGGGUGAUUUUUUCCUCGAGCAA, no more than 0.026; as for CUCUCGGUAGCCAAGUUGGUUUAAGGCGUAAGGCUUUAAUUUAUCACUACGAAAUCUUGAUAUCGGGCGUUCGACUCGCUCCCGGGAGAUUUUUUCCUCGAGCAA, no more than 0.026.
As for CUCUCGGUAGCCAAGUUGGUUUAAGGCGCAAGACUUUAAUUUAUCACUACGAAAGAUUGAGAUCGGGCGUUCGGCUCGCCCCCGGGUGAUUUUUUCCUCGAGCAA, the figure is no more than 0.026; as for CUCUCGGUAGCCAAGUUGGUUUAAGCCGCAAGACUUUAAUUUAUCACUACGAAAUCUUGAGAUCGGGCGUUCGACUCGCCCCAGGGAGAUUUUUUCCUCGAGCAA, no more than 0.026.
Take CUCUCGGUAGCCAAGUUGGUUUAAGGCGCAUGACUUUAAUUUAUCACUACGAAAUCUUGAGAACGGGCGUUCGACUCGCCCCCGGGAGAUUUUUUCCUCGAGCAA: the nonsense suppression came out at 0.0391.
As for CUCUCGGUAGCCAAGUUGGUUUAAGGGGCAAGACGUUAAUUUAUCACUACGAAAUCUUGAGAUAGGGCGUUCGACUCGCCCUCGGGAGAUUUUUUCCUCGAGCAA, the nonsense suppression is no more than 0.026.
For the variant CUCUCGGUAGCCAAGUUGGUUUAAAGCGCAAGACUUUAAUUUAUCACUACGAAAUCUUCAGAUCGGGCGUUCGACACGCCCCCGGGAGAUUUUUUCCUCGAGCAA, the nonsense suppression is no more than 0.026.
As for CUCACGGUAGCCAAGUUGGUUUAAGGCUCAAGACUUUAAUUUAUCACUACGAAAUCCUGAGAUCGGCCGUUCGACUCGCCCCCGUGACAUUUUUUCCUCGAGCAA, the figure is no more than 0.026; as for CUCUCGGUAGCGAAGUUGGUUUAAGGCGCAAGACUUUAAUUUAUCACUACGAAAUCUUGAGAUCGGGCGUUCGACUCGCCCCCAGGAGAUUUUUUCCUCGAGCAA, no more than 0.026.
As for CGCUCGGUAGCUAAGUUGGUUUAAGGCGCAAGACUUUAAUUUAUCACUACGAAAUCUUGACAUCGGGCGUUCGACUCGCCCCCGGGAGAUUUUUUCCUCGAGCAA, the figure is no more than 0.026; as for CUCUCGGUAGGCAAGUUGGUUUAAGGCGCAAGACUUUAAUUUAUCACUACGAAAUCUUGAGAUCGUGCGUUCCACUCGCCCCCGGUAGAUUUUUUCCUCGAGCAA, no more than 0.026.
As to CUCCCGGUAGCCAAAUUGGUAUAAGGCGCAAGACUUUAAUUUAUCACUACGAAAUCUUGAGAUCGGGCGUUCGACUCGCCCCCGGGAGAUUUUUUCCUCGAGCAA, the nonsense suppression was found to be 0.214.
Regarding CUCUCGGUAGCCAAGUUGGUUUAAGGCGCAAGACUUUAAUUUAUCACUACGAAAUCUUGCGAUCGGGCGUUCGAUUCGCCCCCGGGAGAUUUUUUCCUCGAGCAA, the nonsense suppression amounted to 0.167.
Regarding CUCUCAGUAGCCAAGUUGCUUUAAGGCGCAAGAUUUUAAUUUAUCACUACGAAAUCUUGAGCUCGGGCGUUCGACUCGCCCCCGGGAGAUUUUUUCCUCGAGCAA, the nonsense suppression is no more than 0.026.
Turning to CUCUCGGUAGCCAAGUUGGUUUAGGGCGCAAGACUUUAAUUUAUCACUACGAAAUCUUGAGAUCGGGCGUUCGACUCGCGCCCGGGAGAUUUUUUCCUCGAGCAA, the nonsense suppression is no more than 0.026.
The figure for UUGUCGGUAGCCAAGUUGGUUUAAGGCGCAAGACUUUAAUUUAUCACUACGAAAUCUUGAGAUCGGGCGUUCGACUCGCCCCCGGGAGAUUUUUUCCUCGAGCAA is no more than 0.026; for CUCUCGGUAGCCAAGUUGAUUUGAGGCGCAAGACUUUAAUUUAUCACUACGAAAUCGUGAGAUCGGGCGUCCGACUCGCCCCCGGGAGAUUUUUUCCUCGAGCAA it is no more than 0.026; for GUCACGGUAGCCAAGUUGGUUUAAGGCGCAAGACUUUAAUUUAUCACUACGAAGUCUUGAGAUCGGGCGUUCGACUCGCCCCCGGGAGCUUUUUUCCUCGAGCAA it is no more than 0.026.
As for CUCUCGGUAGCCAAGUUGGUUUAAGGCGCAAGACUUUAAUUUAUCACUACGAAUCCUUGAGAUCGGGCGUUCGACUCGCCCCCGGGAGAUUUUUUCCUCGAGCAA, the figure is no more than 0.026.
As to CUCUCGGUAGCCAAGUUGGCUUAAGGCGCAAGACUUUAAUUUAUCACUACGAAAUCUAGAGAUCGGGCGUUCAACUCGCCCUCGGGAGAUUUUUUCCUCGAGCAA, the nonsense suppression was no more than 0.026.
Turning to CUCUCGGUAGCCAAGUUGCUUUAAGGCGCUAGACUUUAAUUUAUCACUACGAAAUCUUGAGAUCGGGCGUUCGACUCGCCCCCGUGGGAUUUUUUCCUCGAGCAA, the nonsense suppression was no more than 0.026.
As for CUCUCGGUAGCCAAGUCGGUUUAAGGCGCAAGACUUUAAUUUAUCACUACGAAAUCUUGAGAUCGGGCGUUCGACUAGCCCCCGGGGGAUUUUUUCCUCGAGCAA, the figure is no more than 0.026; as for UUCUCGGUAGCCAAGUUGGUUUAAGGCGCAAGACUUUAAUUUAUCACUACGAAAUCUUGAGAUCGGGCCUUCCACUCGCCCCCGGGAGAUUUUUUCCUCGAGCAA, no more than 0.026.
The figure for CUCUCGGUAGCCAAGUUGGUUUAAGUCGCAGGACUUUAAUUUAUCACUACGAAAUCUUGAGAUCGGGCGUUCGACUCGCCCCCGGGAGAUUUUUUCCUCGAGCAA is no more than 0.026.
As to CUCUAGGUAGCCAAGUUGGUUUAAGGCGCAAGACUUUAAUUUAUCACUACGAAAUCUUCAGAUCGGGCGUUCUACUCGCUCCCGGGAGAUUUUUUCCUCGAGCAA, the nonsense suppression was no more than 0.026.
As for CUCUCGGUAGCCAAGUUGGUUUAAGGCGUAAGACUUUAAUUUAUCACUACGAAAUCUUGAGAUCGGGCGUUCGACUCGCCCCUGGGAGAUUUUUUCCUCGAGCAA, the figure is 0.0384.
Turning to CUCUCGGUAGCCAAGUUGGUUUAAGGCGGAAGACUUUAAUUUAUCACUACGAAAUCUUGAGAUCGGGCGUUCGUCUCGCCCCCGGGAGAUUUUUUCCUCGAGCAA, the nonsense suppression was no more than 0.026.
The figure for CUCUCGGUAGCCACGUUGGUUUAAGGGGCAAGACUUUAAUUUAUCACUACGAAAUCUUGAGAUCAGGCGUUCGACUCGCCCCCGGGAGAUUUUUUCCUCGAGCAA is no more than 0.026; for CUCUCGCUAGCCAAGUUGGUUUAAGGCGCAAGACUUUAAUUUAUCACUACGAAAUCUUGAGAUCGGGCGUUCGACUCACCCCCGGGAGAUUUUUUCCUCGAGCAA it is no more than 0.026.
On to CUCUCGGAAGCCAAGUUGGUUUAAGUCGCAAGACUUUAAUUUAUCACUACGAAAUCUUGAGAUCGGGCGUUCGACUCGCCCCCGGGAGAUUUUUUCCUCGAGCAA, for which the nonsense suppression is no more than 0.026.
As for CUCUCGGUAGCCAAGUUGGUUUAAGGCGCAAGACUUUAAUUUAUCACUACGAAAUCUUGAGAUCGGGCGUUCAACCCGCCCCCGGGAGAUUUUUUCCUCGAGCAA, the figure is 0.682.
The figure for CUCUCGGUAGCAAAGUUGGUUUAAGGCUCAAGAUUUUAAUUUAUCACUACGAAAUCUUGAGAUCGGGCCUUCGACUCGCCCCCGGGACAUUUUUUCCUCGAGCAA is no more than 0.026.
As to CUCUCGGUAGCCAAGUUGGUUUAAGGCGCAAGACUUUAAUUUAUCACUACGAAAUCUUGAGAUCGGGACUUCGACUCGGCCCCGGGAGAUUUUUUCCUCGAGCAA, the nonsense suppression was no more than 0.026.
